According to PubChem BioAssay AID624296 (National Center for Advancing Translational Sciences (NCATS), 2012):
Among all 350,000 compounds or so, about 9,900 (2.8%) were called active. Inconclusive means that the source gave no clear call. Such entries were picked first, then a sample of the others. The call rests on the fitted dose curve; in most records, active means well fitted activation curve with a large enough effect; inconclusive means small, poorly fitted or top-dose-only effect; inactive means no such curve, though single readings can be large or run the other way. Potencies of inconclusive entries are left out as doubtful fits.

Test: A quantitative high throughput screen for small molecules that induce DNA re-replication in MCF 10a normal breast cells. Further: nearly all actives have a fitted effect of over 50% in size. On activity, positive = re-replication: % of control where 0% means no effect.
Details: MCF 10A DNA re-replication, Hoechst nuclear intensity, 48 h; activity, positive = re-replication: at 46.1 µM (top of the series)
Potency means the concentration at half of the fitted maximal effect; tags describe the fitted curve by direction and shape.

Compound	Potency	activity, positive = re-replication
Cc1ccc(/C=[N+](\[O-])c2ccc(N(C)C)cc2)c2nsnc12	active: 11.2 µM	
O=C1C2CC=C(Cl)CC2C(=O)N1CCCCCCN1C(=O)C2CC=C(Cl)CC2C1=O (configuration not stated)	inconclusive [activator, single point]	
COc1ccc2cc3c(N)nn(C(=O)c4ccc(F)cc4)c3nc2c1	inconclusive [activator, partial curve, poor fit]	
Cc1nc(-c2cccc(NS(=O)(=O)c3cccc4ccccc34)c2)cs1	inconclusive [activator, partial curve]	
COc1cc(-c2noc(C)c2C(=O)NCCc2cccs2)cc(OC)c1OC	inconclusive [activator, full curve, poor fit]	
CC(C)c1ccc(NC(=S)Nc2cccc3ccccc23)cc1	inconclusive [activator, single point]	
CC(C)C(CCNCc1ccccn1)c1ccc(Cl)cc1 (configuration not stated)	inconclusive [activator, single point]	
O=C(c1ccc(N2CCOCC2)c([N+](=O)[O-])c1)N1CCN(c2ccccc2F)CC1	inconclusive [activator, single point]	
Cc1nnc(SCC(=O)NCc2cccs2)n1-c1ccccc1		inactive: 8.25%
O=C(CSc1nnc(-c2c[nH]c3ccccc23)o1)c1ccc(-c2ccccc2)cc1	inconclusive [activator, single point]	
O=C(/C=C/NNC(=O)c1ccccc1)c1ccccc1	inconclusive [activator, partial curve]	
Nc1nc(C(c2ccccc2)c2ccccc2)cs1		inactive: -1.04%
O=C(CCN1CCCCC1)NNC(=O)C12CC3CC(CC(C3)C1)C2		inactive: 2.17%
Oc1ccc(/C=C/c2nc(-c3ccccc3O)n(-c3ccccc3)n2)cc1	active: 16.4 µM	
CN(CC(=O)Nc1ccccc1Sc1ccccc1)Cc1nc2ccccc2c(=O)[nH]1	inconclusive [activator, single point]	
COC(=O)c1cccc(Nc2ncnc3ccc(C)cc23)c1	inconclusive [activator, single point]	
O=C(O)CC(c1ccc(Cl)cc1)N1C(=O)CCC1=O (configuration not stated)	inconclusive [activator, partial curve, poor fit]	
CCOC(=O)c1[nH]c2ccc(F)cc2c1NC(=O)C(C)N1CCc2cc(OC)c(OC)cc2C1 (configuration not stated)	active: 7.31 µM	
O=S(=O)(Nc1nc2ccccc2nc1N1CCc2ccccc2C1)c1ccc(Br)cc1	active: 14.6 µM	
O=S(=O)(NCc1ccco1)c1ccc2c(c1)Cc1ccccc1-2	inconclusive [activator, full curve, poor fit]	
CSc1ncccc1C(=O)Nc1nc2c(C)cccc2s1	inconclusive [activator, partial curve, poor fit]	
O=C(c1ccc(Br)cc1)N1CCC(C(=O)N2CCN(c3ccccc3)CC2)CC1		inactive: -26%
CCCCOc1ccc(-c2nc(=S)[nH][nH]2)cc1	inconclusive [activator, full curve, poor fit]	
COc1ccc(-c2noc(CNS(=O)(=O)c3ccc(NC(C)=O)cc3)n2)cc1		inactive: 14.3%

Compound	Potency	activity, positive = re-replication
CC1=NN(C(=O)c2ccc(Cn3nc(C)c([N+](=O)[O-])c3C)cc2)C(O)(C(F)(F)F)C1 (configuration not stated)	inconclusive [activator, full curve]	
COc1ccc(-c2c(C#Cc3ccc(N(C)C)cc3)c3ccccc3n2C)cc1	inconclusive [activator, partial curve, poor fit]	
CC(=O)N/C(=C/c1ccc([N+](=O)[O-])cc1)C(=O)O		inactive: 0.467%
CN(Cc1ccccn1)C(=O)CC1C(=O)NCCN1Cc1ccc(F)cc1Cl (configuration not stated)		inactive: 13%
COc1cc(/C=C2\CCn3c2nc2cc(C(=O)O)ccc2c3=O)ccc1OC(F)F	inconclusive [activator, partial curve, poor fit]	
O=C1C2ON(c3ccccc3)C(c3cccnc3)C2C(=O)N1c1ccccc1 (configuration not stated)	inconclusive [activator, single point]	
CC(=O)Nc1ccc(S(=O)(=O)NC2=C(N3CCN(c4ccc(F)cc4)CC3)C(=O)c3ccccc3C2=O)cc1	active: 16.4 µM	
O=S(=O)(NC(=NCc1ccccc1)c1ccccc1)c1ccc(Br)cc1		inactive: 3.88%
COc1cccc(C(=O)NCc2nnc(SCC(=O)Nc3nccs3)n2-c2ccccc2)c1		inactive: 14.9%
COC(=O)CCN1CCC2CC1c1cc(Cl)ccc12 (configuration not stated)	inconclusive [activator, full curve, poor fit]	
Cn1nc(C(=O)Nc2ccc(S(=O)(=O)N3CCCCC3)cc2)ccc1=O	inconclusive [activator, partial curve, poor fit]	
CCC(C)(C)n1nnnc1C(c1ccc(C)cc1)N1CCCC1 (configuration not stated)	inconclusive [activator, partial curve, poor fit]	
NC(c1ccccc1)c1ccncc1 (configuration not stated)		inactive: 3.96%
O=C(COC(=O)CNC(=O)c1ccc(Cl)cc1Cl)NNC(=O)c1ccccc1	inconclusive [activator, partial curve, poor fit]	
CCN1CCN(c2ccc(NC(=O)c3cccc(S(=O)(=O)N4CCCC4)c3)cc2)CC1	inconclusive [activator, partial curve]	
O=C(Cn1ncc(Cl)c(Cl)c1=O)c1ccc(Cl)cc1	active: 9.2 µM	
CCC1CCCCN1S(=O)(=O)c1ccc(NC(=O)c2snnc2C)cc1 (configuration not stated)	inconclusive [activator, single point]	
Cc1ccc(S(=O)(=O)N(C)c2ccc(OCC(=O)Nc3nc4ccccc4s3)cc2)cc1		inactive: 8.09%
NNc1nc2c(-c3ccc(Cl)cc3)nnn2c2ccccc12	active: 5.8 µM	
CCOc1ccc(Br)cc1S(=O)(=O)Nc1ccc(C(=O)OC(C)C(=O)N(C)c2ccccc2)cc1 (configuration not stated)	inconclusive [activator, single point]	
NS(=O)(=O)c1ccc(CCNC(=O)CCc2ccccc2)cc1	inconclusive [activator, partial curve, poor fit]	
CCOC(=O)CC(=O)CSc1nc(-c2ccccc2)cc(-c2ccc(Cl)cc2)c1C#N	active: 11.6 µM	
C=C(C)CNC(=O)C1CCC(=O)N(CCCc2ccccc2)C1 (configuration not stated)		inactive: -2.55%
CC1CN(C(=O)C2CC2)C(C)CN1C(=O)C1CC1 (configuration not stated)		inactive: -3.34%

Compound	Potency	activity, positive = re-replication
Cc1ccc(CNC(=S)Nc2ccc(C)c([N+](=O)[O-])c2)cc1	inconclusive [activator, full curve, poor fit]	
Cc1ccc(-n2nc3ccc(NC(=O)c4cccc([N+](=O)[O-])c4C)cc3n2)cc1	active: 13 µM	
COc1ccc(OC)c(NS(=O)(=O)c2ccc(SC)cc2)c1	active: 13 µM	
CCOc1ccc(CCNC(=O)CSc2cc(=O)n(CC)c3ccccc23)cc1OCC		inactive: 5.66%
CCC(C)NC(=O)c1c(N)n(/N=C/c2cccnc2)c2nc3ccccc3nc12 (configuration not stated)	active: 2.06 µM	
COc1ccc(C(CNc2ccc(S(C)(=O)=O)cc2[N+](=O)[O-])N(C)C)cc1OC (configuration not stated)	inconclusive [activator, partial curve, poor fit]	
c1ccc(N2CCN(c3ncnc4c3oc3ccccc34)CC2)cc1		inactive: 2.55%
CC[C@]12c3[nH]c4ccc(Cl)cc4c3CCN1C(=O)[C@@H](CC(=O)NCc1ccc(OC)c(OC)c1)C[C@@H]2C(=O)N1CCN(C(=O)C2CC2)CC1		inactive: -2.67%
COc1cccc(-c2cc(C(F)(F)F)nc(N3CCOCC3)n2)c1	inconclusive [activator, single point]	
Cc1ccc(OCCNC(=O)CCc2ccccc2)cc1C	inconclusive [activator, single point]	
O=C(/C=C/c1ccccc1)Nc1cccc(C(=O)NC2CC2)c1		inactive: -3.08%
Cc1cc(C)cc(NC(=O)c2ccc(CSc3nnnn3C)cc2)c1	inconclusive [activator, partial curve]	
CCN(Cc1cnn(C)c1)C(=O)c1ccc(OC2CCN(S(=O)(=O)N(C)C)CC2)cc1		inactive: 7.32%
CCOC(=O)C1CCN(S(=O)(=O)c2ccc(CC)cc2)CC1	inconclusive [activator, partial curve, poor fit]	
COc1ccc(C(=O)Nc2ccccc2C(=O)Nc2cc(C)ccn2)cc1	inconclusive [activator, single point]	
O=C(CSc1ccc(Cl)cc1)Nc1cccc(-c2nc3ncccc3o2)c1		inactive: 11.5%
CCOc1ccccc1C(=O)Nc1ccc(-n2nncc2C(C)(C)C)cc1		inactive: -3.82%
COc1cccc(CNC(=O)COC(=O)CCc2cc(OC)c(OC)c(OC)c2)c1	inconclusive [activator, full curve, poor fit]	
COc1ccccc1N1CCN(C2CCCCC2NS(=O)(=O)c2ccccc2)CC1 (configuration not stated)	inconclusive [activator, partial curve, poor fit]	
COc1cccc(C(C(=O)NC2CCCCC2)N(C(=O)Cc2cccs2)c2ccc(-n3cnnn3)c(OC)c2)c1 (configuration not stated)		inactive: 19.6%
COc1ccc(NC(=S)N(CCCN2CCCC2)Cc2cccs2)cc1		inactive: 15.7%
OCC(O)C1OC(Oc2ccccc2)C(O)C(O)C1O (configuration not stated)		inactive: -32.8%
C/C(=N\NC(=S)Nc1cccc(C)c1)c1ccco1		inactive: 0.482%
C=CCn1c(-c2ccc(S(=O)(=O)N3CCOCC3)cc2)csc1=Nc1ccccc1	inconclusive [activator, partial curve, poor fit]	
